# Among all 360,000 compounds or so, about 25,000 (6.9%) were called active. The shares of active, inactive and inconclusive entries below differ from those in the screen. The call rests on the fitted dose curve; in most records, active means well fitted inhibition curve with a large enough effect; inconclusive means small, poorly fitted or top-dose-only effect; inactive means flat fitted curve, though single readings scatter. Potencies of inconclusive entries are doubtful fits and often do not repeat.
# Molecular target: Luciferin 4-monooxygenase (Photinus pyralis) (UniProt P08659)
# Experiment: qHTS profiling assay for firefly luciferase inhibitor/activator using purifed enzyme and Km concentrations of substrates (counterscreen for miR-21 project); further: nearly all actives have a fitted effect of over 55% in size
# Settings: purified FLuc, luminescence inhibition; series mostly up to 57.5 µM
# In short: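 Purified P. pyralis luciferase, 10 nM final, with Km-level 10 uM D-luciferin and 10 uM ATP in 50 mM Tris acetate pH 7.5, 10 mM Mg acetate, 0.01% Tween-20, 0.05% BSA; 6-point qHTS titration about 60 µM downward; luminescence read.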
# Potency means the concentration at half of the fitted maximal effect; tags describe the fitted curve by direction and shape.
# Chain of UniProt P08659 (P08659 whole entry, looked up): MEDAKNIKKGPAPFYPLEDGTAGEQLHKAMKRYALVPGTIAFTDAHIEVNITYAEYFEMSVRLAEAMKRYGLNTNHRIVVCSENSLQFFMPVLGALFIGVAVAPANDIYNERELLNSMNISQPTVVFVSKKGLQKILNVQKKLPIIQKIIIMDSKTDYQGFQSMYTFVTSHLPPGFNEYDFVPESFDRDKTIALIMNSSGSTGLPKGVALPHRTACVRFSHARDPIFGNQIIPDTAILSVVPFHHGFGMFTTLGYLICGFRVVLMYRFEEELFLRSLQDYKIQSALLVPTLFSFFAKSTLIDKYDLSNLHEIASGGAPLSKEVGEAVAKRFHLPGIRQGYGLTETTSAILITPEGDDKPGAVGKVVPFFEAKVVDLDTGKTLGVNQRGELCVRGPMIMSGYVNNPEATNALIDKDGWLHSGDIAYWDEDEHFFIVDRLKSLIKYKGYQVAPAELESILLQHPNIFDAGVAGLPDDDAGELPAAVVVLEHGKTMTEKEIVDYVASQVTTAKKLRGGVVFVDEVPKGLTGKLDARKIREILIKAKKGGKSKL
row,SMILES,Potency
1,COC(=O)COc1ccc(C2C(C(=O)OC)=C(C)NC3=C2C(=O)c2ccccc23)cc1OC (stereo not given),"inconclusive: 37.9 µM [inhibitor, partial curve, poor fit]"
2,CN(C(=S)Nc1ccc(SC(F)F)cc1)c1ccc(O)cc1,"inconclusive: 21.3 µM [inhibitor, partial curve, poor fit]"
3,CNC(=S)NNC(=O)c1ccc(=O)n(Cc2ccc(Cl)cc2Cl)c1,"inconclusive: 37.9 µM [inhibitor, single point]"
4,COc1ccc(CCNC(=O)Cc2c(C)c3cc4c(C(C)(C)C)coc4c(C)c3oc2=O)cc1OC,inactive
5,O=C(CSC1=NCCS1)Nc1nc(-c2ccccc2)cs1,"inconclusive: 23.9 µM [inhibitor, single point]"
6,COc1ccc(OC)c(NC(=O)c2cc(S(=O)(=O)N(C)C)ccc2N2CCCC2)c1,inactive
7,CC(C)c1ccc(S(=O)(=O)/N=C2\C=C(NS(=O)(=O)c3ccccc3)C(=O)c3ccccc32)cc1,active: 19 µM
8,Cn1cccc1/C=N/NC(=O)CNc1ccc2ccccc2c1,"inconclusive: 23.9 µM [inhibitor, single point]"
9,COc1ccc(C(=O)Nn2c(SCC(=O)N3CCC(C)CC3)nc3ccccc3c2=O)cc1,active: 0.675 µM
10,COc1cccc(Nc2nc3ccccc3n3nnnc23)c1,"inconclusive: 30.1 µM [inhibitor, single point]"
11,CCc1ccc(CNC(=O)CCCn2ccc3cc(S(=O)(=O)N4CCCC4)ccc32)cc1,"inconclusive: 13.5 µM [inhibitor, partial curve]"
12,COc1ccc(-c2cc(-c3ccc(C)cc3)nc3c2COc2ccccc2-3)cc1,"inconclusive: 21.3 µM [inhibitor, partial curve, poor fit]"
13,O=C(c1ccccc1Br)N1CCCC(c2nc(-c3cccs3)no2)C1 (stereo not given),"inconclusive: 26.9 µM [inhibitor, partial curve, poor fit]"
14,Cc1nc(-c2ccccc2)sc1C1(C)CC(c2c(Cl)cccc2Cl)=NO1 (stereo not given),"inconclusive: 37.9 µM [inhibitor, single point]"
15,COc1ccc(N=C2S/C(=C\c3ccc(Cl)c([N+](=O)[O-])c3)C(=O)N2CCN(C)C)cc1,inactive
16,O=C(O)c1c(-n2cccc2)sc2c1CCCC2,"inconclusive: 21.3 µM [inhibitor, single point]"
17,CN1CCN(C(=O)/C=C/c2cn(-c3ccccc3)nc2-c2ccc3c(c2)OCCO3)CC1,inactive
18,S=C(NCCN1CCOCC1)NC1CCCCC1,inactive
19,O=C(COC(=O)CNC(=O)c1ccc(-c2ccccc2)cc1)NCc1ccco1,"inconclusive: 19 µM [inhibitor, partial curve, poor fit]"
20,CC1CN(CC(=O)Nc2nc3ccccc3s2)CC(C)O1 (stereo not given),inactive
21,CCN(CC)c1ccc(-c2nc3cnccc3n2C)cc1,active: 4.78 µM
22,Clc1ccccc1OCCSc1nnc(-c2cccs2)o1,"inconclusive: 26.9 µM [inhibitor, partial curve, poor fit]"
23,CC(C)c1ccc(/C=N/NC(=O)CCNC(=O)c2ccccc2)cc1,active: 8.49 µM
24,CCc1ccc2oc(-c3ccc(C)c(NC(=O)/C=C/c4ccco4)c3)nc2c1,active: 3.01 µM
25,Cc1ccc2nc(/C(C#N)=C/c3ccccc3F)[nH]c2c1,active: 8.49 µM

row,SMILES,Potency
1,Cc1cc2nc(SCC(=O)N(C)C)c3c(c2cc1C)CCCC3,"inconclusive: 13.5 µM [inhibitor, partial curve]"
2,CCCCOC(=O)c1ccc(NC(=O)C(=O)NCCN(CC)CC)cc1,inactive
3,O=C(NC(Cc1c[nH]c2ccccc12)C(=O)NCc1ccc(F)cc1)OCc1ccccc1 (stereo not given),"inconclusive: 21.3 µM [inhibitor, single point]"
4,N#Cc1c(-c2ccc(Cl)cc2)cc(-c2cccs2)nc1SCC(=O)O,"inconclusive: 21.3 µM [inhibitor, partial curve, poor fit]"
5,O=c1cc(O)c2ccccc2n1Cc1ccccc1,"inconclusive: 30.1 µM [inhibitor, partial curve, poor fit]"
6,COc1cccc(-c2nc3ccccc3s2)c1,active: 0.849 µM
7,COc1ccc(CN2CCN(C3CCC3)CC2CCO)cc1C (stereo not given),inactive
8,CCn1cc(CNC(=O)c2cc(-c3ccc(C)cc3)nc3ccc(Br)cc23)c(C)n1,"inconclusive: 1.69 µM [inhibitor, full curve]"
9,COc1cccc(NC(=O)C2CCC(CNS(=O)(=O)c3ccc4c(c3)CCCC(=O)N4)CC2)c1 (stereo not given),inactive
10,O=C(COC(=O)Cc1ccc(F)cc1)NC1CCCCC1,inactive
11,COc1ccc(NC(=O)CN2C(=O)COc3ccc(S(=O)(=O)N4CCOCC4)cc32)cc1,inactive
12,CCn1nc(C)c(CCN(C)C(=O)Nc2cccc(Cl)c2C)c1C,inactive
13,Cc1cccc(C(=O)N2CCc3cc(CNC(=O)c4cc5ccccc5[nH]4)ccc32)c1,inactive
14,COc1ccc(/C=C2\Oc3cc(OCC(N)=O)ccc3C2=O)cc1OC,active: 12 µM
15,N#Cc1c(N2CCCC2)nc(N)c2c(N)nc(N3CCCC3)cc12,"inconclusive: 13.5 µM [inhibitor, partial curve]"
16,CCOc1ccc(Nc2nc(Cl)nc(N3CCN(c4ccc(OC)cc4)CC3)n2)cc1,inactive
17,CC(=O)Nc1cc2nn(-c3ccccc3)nc2cc1Cl,active: 1.51 µM
18,O=C(COc1ccc2ccccc2c1Br)N1CCOCC1,"inconclusive: 23.9 µM [inhibitor, partial curve]"
19,Fc1ccc(NC(=S)Nc2cccnc2)cc1,inactive
20,CSc1ncccc1C(=O)OCC(=O)c1cc2ccccc2o1,active: 21.3 µM
21,CCN(CC)S(=O)(=O)c1cccc(NC(=O)COc2ccc(F)cc2Br)c1,"inconclusive: 13.5 µM [inhibitor, partial curve]"
22,CC(C)(CNC(=O)c1ccc(Br)o1)CNC(=O)c1ccc(Br)o1,inactive
23,COc1ccc(Cl)cc1N1C(=O)CC(Sc2ccccc2N)C1=O (stereo not given),inactive
24,COc1ccc(OC)c(CNS(=O)(=O)c2cc(CN3C(=O)c4cccnc4C3=O)ccc2OC)c1,inactive
25,Nc1[nH]n2c(=O)cc(-c3ccccc3)nc2c1N=Nc1ccc2c(c1)OCO2,active: 5.36 µM

row,SMILES,Potency
1,CC(C)Oc1ccc(C(=O)/C=C2/C(=O)Nc3ccccc32)cc1,active: 5.36 µM
2,Cc1ccc(N2CC(C(=O)OCc3nc(N)nc(Nc4ccccc4C)n3)CC2=O)cc1 (stereo not given),inactive
3,CCCCNC(=O)/C=C/c1ccc(OC)c(Br)c1,"inconclusive: 16.9 µM [inhibitor, partial curve]"
4,COc1ccccc1Cc1nc(-c2ccc(Br)o2)no1,active: 19 µM
5,CCOC(=O)c1ccc(NC(=S)NCc2ccc(S(N)(=O)=O)cc2)cc1,inactive
6,CC(C)(C)SCCSC1=CC(=O)CC(c2ccccc2)C1 (stereo not given),"inconclusive: 21.3 µM [inhibitor, partial curve]"
7,Cc1cc(C(=O)CSc2nncs2)c(C)n1-c1c(C)n(C)n(-c2ccccc2)c1=O,inactive
8,COc1cc2c(cc1OC)/C(=C/C(=O)c1ccc(C)cc1)NCC2,active: 16.9 µM
9,COc1ccc(/C=N/n2cc(-c3ccc(OC)cc3)nc2N)cc1,"inconclusive: 30.1 µM [inhibitor, single point]"
10,CCOc1cc(/C=C2\CCCc3c2nc2ccccc2c3C(=O)O)ccc1OC,"inconclusive: 21.3 µM [inhibitor, partial curve, poor fit]"
11,COc1ccc(NC(=O)COC(=O)CC2CCCCC2)cc1,"inconclusive: 15.1 µM [inhibitor, partial curve]"
12,COc1cc([N+](=O)[O-])ccc1NC(=S)NNC(=O)CCC(=O)Nc1ccccc1Cl,"inconclusive: 26.9 µM [inhibitor, partial curve]"
13,Cc1ccc(S(=O)(=O)NNC(=O)c2ccc(NC(=O)C3CC3)cc2)cc1,inactive
14,CCOc1ccc(CCNC(=O)c2cc3c(s2)CS(=O)(=O)C3)cc1OCC,inactive
15,O=C(Nc1cnc2ccccc2c1)N1CCOCC1,"inconclusive: 26.9 µM [inhibitor, single point]"
16,CCCCc1nc2cc(C(=O)N3CCCC3)ccc2o1,"inconclusive: 26.9 µM [inhibitor, single point]"
17,CCOC(=O)c1cccc(NC(=O)c2ncoc2-c2ccco2)c1,"inconclusive: 23.9 µM [inhibitor, partial curve]"
18,CCOc1ccc(/C=N/NC(=O)c2c(C)n(C)c3ccc(OC)cc23)cc1,"inconclusive: 9.53 µM [inhibitor, partial curve]"
19,COc1cccc(Nc2nc3cc(C)ccc3nc2NS(=O)(=O)c2ccc(Cl)cc2)c1,"inconclusive: 10.7 µM [inhibitor, partial curve]"
20,O=C(COc1ccccc1Cl)Nc1ccccc1C(=O)N1CCCCC1,"inconclusive: 21.3 µM [inhibitor, partial curve]"
21,Cn1c2ccccc2n2c(=O)cc(-c3ccccc3)c(C#N)c12,"inconclusive: 15.1 µM [inhibitor, partial curve, poor fit]"
22,CC(=O)C1C(=O)c2c(cccc2[N+](=O)[O-])C1=Nc1cccc(Cl)c1 (stereo not given),"inconclusive: 23.9 µM [inhibitor, single point]"
23,Cc1c(CCC(=O)N[C@@H](CCCNC(N)=O)C(=O)O)c(=O)oc2cc3oc4c(c3cc12)CCCC4,active: 15.1 µM
24,NC1=NC(c2cn(-c3ccccc3)nc2-c2cccs2)n2c(nc3ccccc32)N1 (stereo not given),"inconclusive: 26.9 µM [inhibitor, partial curve, poor fit]"
25,Cc1nn(CCc2nn[nH]n2)c2nc(-c3ccc(Br)cc3)cc(C(F)(F)F)c12,"inconclusive: 26.9 µM [inhibitor, single point]"

# Source: PubChem BioAssay AID588342 (National Center for Advancing Translational Sciences (NCATS), 2011)
